Data: the RNAGym collection of RNA variant scans (doi:10.7554/elife.90254)
The source gives no read counts; variants with many changes may rest on few reads.

B1: LINE1-mini (parent)
chain: GGCAGAGCUCAACACAGCGUGGCAAAGUGGCUGUGGCUAGACUGCC

Variants of: B1
Assay: self-cleavage, relative activity (ratio to wild type); higher = more cleavage; in vitro, sequencing; the parent is a self-cleaving ribozyme

Variant | self-cleavage
C10U G17A C31U U34G | 0.01
C10U C18U G27U A39U | 0.13
A11C C15G G29C C31U | 0.01
A11C G19U C37U | 0.02
C10U G22U G29A | 0.21
A11C C18G G35U | 0.06
C10U C23A C31G | 0.04
A11C U20G G30C C45U | 0.01
C10U C18A G44U | 0.01
A11C A24U G27U G35U A39G G44A | 0
C10U U34C U43A | 0.02
A11C G21U G30C G36C C37G | 0.01
C10U U20A C31G U34A | 0.05
C10U G29A G30U C37U | 0.02
A11C A14C C18U | 0.05
A11C A26G G35A | 0.01
C10U G21C A39G | 0.11
C10U G21A A26G | 0.46
A11C C18A A39G | 0.16
C10U C15G G19A A26G | 0.03
A11C U20G G27C C42U | 0.04

Variant | self-cleavage
A11C A12U G33A G40A | 0.01
C10U C37U C45A | 0.07
A11C U34A G36C | 0
A11C A16G G17C C31A U34C C42A | 0
C10U U20G G30U G40C | 0.01
A11C G17U G21U A24C | 0
A11C A12G G17U G19A U32C G35U G40U | 0.01
A11C C18G G21C C31G G40U | 0.01
C10U G17A G22U | 0.74
C10U C15U G17A C31A G35U | 0.02
A11C C15A G29A G36C | 0.01
C10U G17C G29U G36A | 0.03
A11C A14U C18U A24U C46U | 0.03
A11C C13A C23G G44U C45G | 0.01
A11C G21U G27U | 0.02
A11C G29U U34A A41C | 0.02
A11C U28A G40C | 0.03
C10U C18G C31U | 0.02
A11C C23A U28G G30U G36A | 0.05
C10U G33C U38A | 0.04
A11C C15U G40A C46A | 0.01

Variant | self-cleavage
A11C A24C G27U G30U C37U | 0.01
A11C U32C A39G | 0.04
A11C G22U C37G | 0.01
A11C G29C G33A C46A | 0
A11C A25C G40C | 0.02
C10U C15A G19A G22A C23U | 0.04
C10U C23U U28A | 0.29
C10U U28C G40C C46U | 0.02
C10U G21A G22C A26G G30C | 0.46
A11C C13A G19U A24U | 0.01
A11C G30C G33A | 0.03
A11C G19A C31U A41U | 0.04
C10U U20A U28C U32G | 0.02
C10U G22C C42A | 0.06
C10U G17U A25C G27A C31A | 0.53
A11C U32C G33A | 0.04
A11C C13A A14G U20C U34G C42G | 0.01
A11C U20A G21U U43A | 0
C10U C15G G21U C42U | 0.03
C10U G21U U34G G35C G44U | 0.04
A11C G22U G29U | 0

Variant | self-cleavage
C10U G17A G22C C23G G44C | 0.02
A11C U32A G33U A41G C46A | 0.02
A11C C23A G29U G44A | 0
A11C C13A A41U | 0
A11C A14U C18A U32G | 0.01
A11C G36C G44C | 0.01
A11C U20A G29U | 0.01
A11C G17A G30U | 0.04
A11C G30U A39G G44A | 0
A11C G19U C46G | 0.14
C10U C15U C18G C31A | 0.04
A11C G35U A39U | 0.02
C10U C13U G22C | 0.04
A11C C15U C18U G19C G22U A26G G30U | 0.01
C10U C15U A25G | 0.1
C10U G22U C23U A25U | 1.67
A11C A16U G27C U28C G35A | 0.11
C10U G29U C31U U34G G36U G40A | 0.04
A11C G22A G30C G35U C42G | 0.02
A11C G17U U20A G29C G36U A41G | 0
C10U U34C G35U | 0.03
